The supplement of paper PMC3334620
In all, about 33,000 sequences were measured (“E-score (-0.5 to 0.5)”: median about -0.032, highest 2% from about 0.36 on). The list shows a part of the results.

Target: T1, Sko1 (UniProt Q02100)
T1 sequence: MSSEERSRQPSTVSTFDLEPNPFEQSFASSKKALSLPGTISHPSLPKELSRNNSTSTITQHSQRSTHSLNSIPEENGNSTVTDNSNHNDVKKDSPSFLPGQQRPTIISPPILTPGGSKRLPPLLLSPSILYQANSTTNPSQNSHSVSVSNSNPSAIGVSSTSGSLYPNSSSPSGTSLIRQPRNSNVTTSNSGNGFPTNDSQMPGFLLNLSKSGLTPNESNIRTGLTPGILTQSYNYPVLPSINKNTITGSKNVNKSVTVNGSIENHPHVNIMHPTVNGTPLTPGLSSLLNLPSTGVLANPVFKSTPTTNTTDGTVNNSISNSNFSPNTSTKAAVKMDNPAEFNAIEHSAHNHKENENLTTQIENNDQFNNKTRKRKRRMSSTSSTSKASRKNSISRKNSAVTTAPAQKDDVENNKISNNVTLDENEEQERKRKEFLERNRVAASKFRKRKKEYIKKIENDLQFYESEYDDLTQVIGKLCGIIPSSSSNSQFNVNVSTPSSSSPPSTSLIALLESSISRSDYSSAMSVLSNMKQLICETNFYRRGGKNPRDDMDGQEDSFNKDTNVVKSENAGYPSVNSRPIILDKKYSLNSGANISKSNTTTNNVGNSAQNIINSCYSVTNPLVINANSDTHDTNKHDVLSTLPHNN
Experiment: PBM E-score (8-mer binding enrichment) (E-score (-0.5 to 0.5)); higher = stronger / more preferred TF binding; most listed sequences are background and not binding sites
Details: protein concentration: 200 nM; construct: GST-full length
How it was run: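 Yeast transcription factors, full-length or as DNA-binding domains, were expressed with a GST tag using PURExpress in vitro transcription/translation. At about 100-200 nM they were applied to universal all-10-mer Agilent arrays, double-stranded by primer extension on fresh or once-stripped slides. Fluorescent anti-GST detected bound protein, and masliner normalised the scans. E-scores for ungapped eight-base words, pooled with reverse complements, came from the Universal PBM Analysis Suite.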

Sequence	PBM E-score
AACCGGCG	-0.0375
GATTGGAA	-0.0393
AAGTCATA	0.184
GATACTAA	0.0567
ACGCAAGA	0.336
GCAACCGC	-0.139
ATGGAAAG	0.179
ACAGGTTG	-0.221
CCGTTTCA	-0.085
CAGTGTCA	0.0363
CCACGCTA	-0.137
CTCTACGA	0.0535
AGCCTCCG	-0.313
TACATAGA	0.12
CAGCGACA	-0.114
CGCGGAAA	-0.198
GAAACACA	0.112
GACCCATC	-0.17
CATTTCGG	-0.134
CTGCTGCA	-0.179
CGCAGAAC	0.156
AGTTTGAC	0.222

Sequence	PBM E-score
ATCAAGAC	0.164
ACGGATAA	0.0434
CCACTTCC	-0.0898
AGTCCTGG	-0.274
CGCATCTC	0.00531
AGCACTCG	-0.347
AACTTTGA	0.0725
AGGAAAGA	-0.25
ACCCGTCG	-0.238
CAAAGATG	-0.0163
TCCTCGCA	-0.147
CCATCCTC	-0.282
CGAGGGCG	-0.189
ACACAGAC	0.109
AGGTTAAA	-0.104
ATATATGG	0.155
ACCATATC	-0.0649
CAGCTTGA	-0.0522
AGTCTAAG	0.104
ATTCTCAA	0.133
AGTACATA	0.00479
GCAGTTCC	-0.0881

Sequence	PBM E-score
ACTCAGTG	-0.263
CCTCGTCA	0.381
CTAGTTGA	0.0808
CCCTGTAA	-0.156
AAAAAGCT	-0.00337
CTCACTAC	0.0377
AATTAGAG	0.198
TATGCAAA	0.167
GGCCGACC	-0.311
AACGGGCA	-0.265
AGAATATA	0.206
AATGCATC	0.0626
AAATGCTA	0.0492
ACGATTCA	0.12
AGGGTAAT	-0.00961
CGCTCCCC	-0.233
TCCTCAAA	-0.0281
AGGGACGA	0.105
CAAGTAGA	-0.167
CCGGCAAC	-0.23
TGCATTAA	0.144
TCTTACCA	-0.0743

Sequence	PBM E-score
CTAGGAAA	-0.103
GAGCTATC	-0.0596
CCTTATGC	-0.0417
ATGACTGG	-0.236
CCGTCCCG	-0.289
GCGGCGGA	-0.24
GAGATGGC	0.0604
GTCCAGAA	0.08
CACAGTTC	-0.0786
CACTTTCG	0.232
CGTCACCC	0.409
CATAGCGA	0.0635
GTCCCTGA	-0.114
AGGTGGGG	-0.0914
AAAATGGC	0.0932
GAACGAAC	0.0231
AAAGTCCA	-0.146
AATCCCTA	-0.0231
AGGGCTAG	-0.201
ACTATCCT	-0.246
AGCCTGGA	-0.197
AGGGTCAG	-0.284

Sequence	PBM E-score
AGACAGAC	0.192
CTCAACTA	0.0152
GTAGACTA	-0.0529
ATATAGAA	0.128
ACTTACCA	-0.0286
CCTTGGGA	-0.152
AGTCGAGG	-0.242
TAATAGAA	0.161
ACCCCGAC	-0.302
CGGGCTAA	-0.314
AGTTGTCA	0.0955
TAGACACA	-0.00663
TCTATCCA	-0.0632
ACTTATCA	0.0219
ATAAGGGG	-0.124
TAATGCCA	0.153
GCCTCAAC	-0.175
GAATCAAA	-0.0549
ATACTTAC	0.214
CGATGCAG	-0.0971
ACTTCCTG	-0.135
AAGAAGAA	-0.00324
